# In PubChem BioAssay AID485294 (National Center for Advancing Translational Sciences (NCATS), 2010):
# Screen size: about 370,000 compounds; about 150 (0.041%) were called active. The inconclusive results got no clear call from the source; some entries with a clear call stand among them for comparison. Calls follow the shape of the dose curve; as a rule, active = well fitted inhibition curve with a large enough effect; inconclusive = small, poorly fitted or top-dose-only effect; inactive = flat fitted curve, though single readings scatter. Potencies of inconclusive entries are left out as doubtful fits.
# Target: Beta-lactamase (Escherichia coli (strain K12)) (UniProt P00811)
# Assay: qHTS Inhibitors of AmpC Beta-Lactamase (assay with detergent); also: nearly all actives have a fitted effect of over 25% in size
# Settings: AmpC hydrolysis of nitrocefin, absorbance 480 nm, 0.01% Triton; series mostly up to 114 µM
# Summary of the method: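 AmpC (5.3 nM in the dispensed reagent) in 20 mM phosphate pH 7.0 with 0.01% (detergent screen) or 0.0001% Triton X-100 was preincubated with compounds for 15 min at room temperature. Nitrocefin was then added from an 800 uM solution, and hydrolysis was followed at 480 nm.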
# Potency is read from the fitted curve at half-maximal effect; tags tell the direction and shape of the fitted curve.
# Sequence of UniProt P00811 (P00811 whole entry, looked up): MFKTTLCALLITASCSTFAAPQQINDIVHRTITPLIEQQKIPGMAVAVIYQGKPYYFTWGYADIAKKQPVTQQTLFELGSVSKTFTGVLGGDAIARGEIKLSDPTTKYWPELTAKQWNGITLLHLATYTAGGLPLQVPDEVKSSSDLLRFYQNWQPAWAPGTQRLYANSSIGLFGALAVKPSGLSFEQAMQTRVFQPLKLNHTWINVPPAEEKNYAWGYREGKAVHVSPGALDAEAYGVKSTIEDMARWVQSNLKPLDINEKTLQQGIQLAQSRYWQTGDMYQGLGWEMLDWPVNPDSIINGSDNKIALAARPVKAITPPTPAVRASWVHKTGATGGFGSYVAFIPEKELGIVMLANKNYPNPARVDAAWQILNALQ
row,SMILES,Potency
1,COc1ccc(N(CC(=O)NCc2ccc(F)cc2)C(=O)Cn2nnc(-c3ccc(C)o3)n2)cc1OC,"inconclusive [inhibitor, partial curve]"
2,O=C(NCCN1C(=O)S/C(=C\c2ccc(F)cc2)C1=O)c1cccc(S(=O)(=O)N2CCOCC2)c1,"inconclusive [inhibitor, partial curve, poor fit]"
3,Cc1ccccc1OCC(=O)Nc1cccc2nsnc12,"inconclusive [inhibitor, full curve]"
4,CCn1c(SC)nnc1-c1nn(-c2ccccc2)ccc1=O,"inconclusive [inhibitor, full curve]"
5,Cc1nc(-c2cccc(F)c2)sc1CCNC(=O)c1c(F)cccc1Cl,inactive
6,Cc1ccc(NC(=O)CSCC(=O)N2CCOCC2)cc1,"inconclusive [inhibitor, partial curve, poor fit]"
7,Cc1ccc(-n2c(Cc3cccn3C)nnc2SCC(=O)N2CCN(c3ccccc3)CC2)cc1,"inconclusive [inhibitor, single point]"
8,O=C(O)c1cc(Nc2nc(N3CCOCC3)nc(N3CCOCC3)n2)ccc1Cl,"inconclusive [inhibitor, full curve, poor fit]"
9,CC(Oc1ccc(C(=O)c2ccc(F)cc2)cc1)C(=O)N1CCOCC1 (centres undefined),"inconclusive [inhibitor, partial curve, poor fit]"
10,Cc1cc(Br)ccc1OCC(=O)N(Cc1nc(-c2ccccc2)no1)C(C)C,"inconclusive [inhibitor, full curve]"
11,O=C(Nc1nnc(C2CC2)s1)c1ccco1,inactive
12,CN1C(=O)CCC1(O)c1ccccc1 (centres undefined),"inconclusive [inhibitor, single point]"
13,O=C(COc1ccccc1Cl)NCc1ccco1,inactive
14,COc1ccc(NC(=O)COC(=O)CNS(=O)(=O)c2ccc(C)cc2)c(OC)c1,"inconclusive [inhibitor, full curve, poor fit]"
15,Cc1cc(OCC(O)CN(C)C(=O)C(C)Oc2ccccc2)ccc1Cl (centres undefined),"inconclusive [inhibitor, full curve, poor fit]"
16,Nc1nc(NCc2c(F)cccc2Cl)nn1-c1ccccc1,"inconclusive [inhibitor, full curve, poor fit]"
17,Cc1ccc(NS(=O)(=O)c2ccc(-c3cnc(C4CC4)o3)cc2)cc1N(C)C,inactive
18,Nn1c(SCC(=O)N2CCCC2=O)nnc1-c1cccs1,"inconclusive [inhibitor, partial curve, poor fit]"
19,Cc1cc(C)cc(NC(=O)C(OC(=O)Cn2cnc3c2c(=O)n(C)c(=O)n3C)c2ccccc2)c1 (centres undefined),"inconclusive [inhibitor, full curve, poor fit]"
20,O=C(CSc1nnc(N2CCOCC2)n1-c1cccc(F)c1)N1CCN(c2ccccn2)CC1,"inconclusive [inhibitor, full curve, poor fit]"
21,CCS(=O)(=O)C(=C(Nc1ccc(OC)cc1)Nc1ccc(OC)cc1)S(=O)(=O)CC,"inconclusive [inhibitor, full curve]"
22,Cn1c(CCNC(=O)c2ccc(Cl)cc2)n[nH]c1=S,"inconclusive [inhibitor, full curve, poor fit]"
23,Cc1ccc(C)n1-c1ccc(C(=O)O)cc1,inactive

row,SMILES,Potency
1,Cc1ccc(C)c(CSc2nc3ccncc3n2CC(=O)Nc2ccc(C)c(C)c2)c1,"inconclusive [inhibitor, partial curve, poor fit]"
2,COc1ccc(/C=C/c2ccc3c(Br)ccc(O)c3n2)cc1,inactive
3,Cc1cc(NC(=O)CN2C(=O)NC3(CCCCC3C)C2=O)no1 (centres undefined),inactive
4,Cc1ccc(N2CC(C(=O)Nc3ccc(S(=O)(=O)N4CCOCC4)cc3)CC2=O)cc1Cl (centres undefined),"inconclusive [inhibitor, partial curve, poor fit]"
5,C/C(=N\NC(=O)Nc1ccccc1)c1ccc2ccccc2c1,"inconclusive [inhibitor, full curve]"
6,COc1cccc(/C=C2\CC(C)Cc3c2nc2ccccc2c3C(=O)O)c1OC (centres undefined),"inconclusive [inhibitor, full curve, poor fit]"
7,CC1(NC(=O)C23CC4CC(CC(C4)C2)C3)CCS(=O)(=O)C1 (centres undefined),"inconclusive [inhibitor, full curve]"
8,Cc1ccc2c(c1)c1nnc(SCC(=O)NC3CC3)nc1n2C,inactive
9,CCC(=NCCN1CCOCC1)c1c(O)n(-c2ccccc2C)c(=O)[nH]c1=O,inactive
10,CC(NC(=O)CSc1nnc(-c2cccc(S(=O)(=O)N3CCCCC3)c2)o1)C12CC3CC(CC(C3)C1)C2 (centres undefined),"inconclusive [inhibitor, partial curve, poor fit]"
11,C#CCOC(=O)C1=CCCN(C)C1,"inconclusive [inhibitor, full curve, poor fit]"
12,CN1C=CC2=C(C#N)C(N)C(C#N)(C#N)C(c3ccccc3)C2C1 (centres undefined),"inconclusive [inhibitor, partial curve]"
13,CN(C(=O)/C=C/c1cnc2ccccc2c1)C1CCCCC1,"inconclusive [inhibitor, full curve]"
14,O=C(/C=C/c1cccs1)Nc1ccc(S(=O)(=O)Nc2ncccn2)cc1,inactive
15,CCCNC(=O)Cn1cnc([N+](=O)[O-])n1,"inconclusive [inhibitor, full curve, poor fit]"
16,C=CCn1c(N)c(C(=O)NCc2cccnc2)sc1=S,"inconclusive [inhibitor, full curve, poor fit]"
17,Cc1cccc(C2NC(c3cccc(C)c3)C([N+](=O)[O-])C(C)(C)C2[N+](=O)[O-])c1 (centres undefined),inactive
18,COC(=O)CCCCCC(CCC(=O)OC)NC(C)=O (centres undefined),"inconclusive [inhibitor, full curve]"
19,c1ccc(-c2cc3ncc4c(n3n2)-c2ccccc2OC4)cc1,inactive
20,NC(=O)CSc1nnc(-c2cccs2)n1Cc1ccco1,inactive
21,CC(C)(C)c1cccc(Cn2nnc3ccccc32)c1O,"inconclusive [inhibitor, partial curve]"
22,O=C(/C=C/c1ccc(F)cc1)Nc1ccc(S(=O)(=O)N2CCOCC2)cc1,inactive
23,Cc1noc(C(C)C)c1C(=O)Nc1ccc(-c2nnc3n2CCCCC3)cc1,inactive

row,SMILES,Potency
1,COc1cccc(CNc2ncnc3onc(C)c23)c1,inactive
2,O=C(NCc1ccccc1)NCc1cccs1,"inconclusive [inhibitor, partial curve, poor fit]"
3,NC(=O)CSc1oc(-c2ccco2)nc1S(=O)(=O)c1ccccc1,"inconclusive [inhibitor, partial curve]"
4,Cc1ccc(SC(C)C(=O)Nc2ccncc2)cc1 (centres undefined),"inconclusive [inhibitor, full curve, poor fit]"
5,CC(=O)N1CC=CC1(C)C(=O)NCc1cc(F)cc(C(F)(F)F)c1 (centres undefined),"inconclusive [inhibitor, full curve, poor fit]"
6,COc1cc(SC)ccc1C(=O)N1CCN(c2ccccc2)CC1,"inconclusive [inhibitor, full curve, poor fit]"
7,CCc1nnc2c(N3CCN(c4cccc(C(F)(F)F)c4)CC3)nc3ccccc3n12,inactive
8,Cc1ccc(NS(=O)(=O)c2cccc(C(=O)N/N=C/c3c(C)nn(-c4ccccc4)c3N3CCCC3)c2)c(C)c1,inactive
9,CCSC(SCC)[C@H](O)[C@@H](O)[C@H](O)[C@H](O)CO,"inconclusive [inhibitor, partial curve, poor fit]"
10,CCOC(=O)c1c(NC(=O)CN(C)C2CCN(C)CC2)sc(C(=O)Nc2ccccc2)c1C,inactive
11,Cc1ccc(C2CC(=O)N3CN(c4ccc(Br)cc4)CSC3=C2C#N)o1 (centres undefined),inactive
12,Cc1oc(-c2ccc3c(c2)OCCO3)cc1C(=O)O,inactive
13,CC(CNC(=O)CCC(=O)N1CCOc2ccc(Cl)cc21)c1ccccc1 (centres undefined),"inconclusive [inhibitor, partial curve, poor fit]"
14,CN1CCOC(c2ccccc2)c2ccccc2C1 (centres undefined),"inconclusive [inhibitor, partial curve]"
15,Cc1ccc(OCC(=O)N2N=C(c3ccc(Cl)cc3)CC2c2ccco2)c([N+](=O)[O-])n1 (centres undefined),"inconclusive [inhibitor, full curve, poor fit]"
16,CCCCCCOc1ccc(CN2CCN(C)CC2)cc1,"inconclusive [inhibitor, partial curve]"
17,Cc1ccc(C)n1-c1sc2c(c1C(=O)O)CCCC2,"inconclusive [inhibitor, full curve]"
18,CCOC(=O)C1CCN(CC(=O)N2C(C)CCCC2C)CC1 (centres undefined),"inconclusive [inhibitor, full curve, poor fit]"
19,O=C(CC1Oc2ccccc2NC1=O)NC1CCCC1 (centres undefined),"inconclusive [inhibitor, full curve, poor fit]"
20,Cc1ccc2[nH]c3c(N4CCCCCC4)ncnc3c2c1,inactive
21,Cc1cccc(NC(=O)Cc2c(F)cccc2Cl)n1,inactive
22,CCOC(=O)c1cc(C)n(-c2c(C)n(C)n(-c3ccccc3)c2=O)c1C,"inconclusive [inhibitor, partial curve]"
23,COc1ccc(S(=O)(=O)N2CCCC2CNC(=O)C(=O)NCCc2ccccc2)cc1 (centres undefined),"inconclusive [inhibitor, full curve]"
